Consider 60 molecules from PubChem BioAssay AID485344 (National Center for Advancing Translational Sciences (NCATS), 2010).

Structures are written as SMILES. In all, about 340,000 compounds went through this assay and about 6,900 (2%) were called active. No stated cut-off is given here; in the data, active means inhibition above about 30%; inactive means below that, where a call was filed. The list shows a part of the results, in another mix than the full data. Entries without a call were filed so in the source.

Broadly, the inhibition is the relative decrease from the control value, in per cent.

The target of this test is D(2) dopamine receptor (Homo sapiens) (UniProt P14416). As to the kind of experiment: HTS Assay for Allosteric Antagonists of the Human D2 Dopamine Receptor: Primary Screen for Antagonists. Further: 0% is about no effect. The conditions noted are these: HEK293 TREx D2 cells, calcium flux, dopamine EC80; at 10 µM; stronger effect = higher value. In short, it runs like this: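 Tetracycline-induced HEK293 TREx cells expressing D2 receptor forced-coupled to calcium signalling, loaded with no-wash calcium dye. Compounds added and calcium flux read 180 s, then dopamine added at EC80 and read a further 180 s.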
Sequence of UniProt P14416 (P14416 whole entry, looked up): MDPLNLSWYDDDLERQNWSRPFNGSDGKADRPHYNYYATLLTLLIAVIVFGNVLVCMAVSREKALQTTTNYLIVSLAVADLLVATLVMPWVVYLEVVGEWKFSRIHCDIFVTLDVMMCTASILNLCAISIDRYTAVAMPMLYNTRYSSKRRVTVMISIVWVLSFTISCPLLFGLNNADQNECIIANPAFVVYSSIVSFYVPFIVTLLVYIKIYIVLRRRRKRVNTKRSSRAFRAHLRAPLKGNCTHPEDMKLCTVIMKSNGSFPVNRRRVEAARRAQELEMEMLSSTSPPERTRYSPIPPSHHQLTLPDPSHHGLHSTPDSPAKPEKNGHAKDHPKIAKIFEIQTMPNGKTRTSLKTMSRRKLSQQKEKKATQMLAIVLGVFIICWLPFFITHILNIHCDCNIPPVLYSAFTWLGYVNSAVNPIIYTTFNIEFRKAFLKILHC
(Calcium assays in cells follow changes in intracellular calcium, usually with a dye or a luminescent sensor.)
In the case of `Cc1cccc(-c2nc(CN3CCCC(C(=O)NCc4ccc(Cl)cc4)C3)c(C)o2)c1` (stereo not given), the inhibition is 3.53%.

On to `CCOC(=O)N1CCC2(CC1)OC(=O)C(C)=C2C(=O)NCc1ccc(C)cc1`, for which the inhibition is -7.95%. For the molecule `CCNC(=O)c1ccc(CSc2nc3cccnc3n2Cc2ccc(OC)cc2)cc1`, the inhibition was -1.74%. To `COC(=O)Cn1ccc2cc(S(=O)(=O)N3CCCCCC3)ccc21` belongs 0.912%. `Cc1ccc(OCc2nnc(SCC(=O)Nc3ccccc3C(C)C)o2)cc1`: the inhibition was -5.07%. To `CCc1ccc(NC(=O)c2ccc3nc(C(C)C)oc3c2)cc1` belongs 11.8%; to `CCOC(=O)c1cc(C)n(CC2CCC(C(=O)Nc3ccc(C)cc3)CC2)c1C` (stereo not given), -1.87%.

Regarding `CCc1ccc(-c2cc(C)no2)cc1S(=O)(=O)N1CCN(c2ccc(F)cc2)CC1`, the inhibition is active: 35.5%.

For the molecule `COc1cc(OC)c(NC(=O)Cn2c(=O)cc(C)c3c(C)nn(-c4ccc(C)cc4)c32)cc1Cl`, the inhibition is 3.51%. In the case of `CSc1ccc(-c2nc3c(C)cccn3c2Nc2ccc3c(c2)OCCO3)cc1`, the inhibition is 9.38%.

For `CSc1ccc(C(=O)Nc2ccc(-c3nc4ccccc4s3)c(O)c2)cc1`, the inhibition was -22.4%. As to `O=C(NCc1ccc(F)cc1)C1CCCCN1S(=O)(=O)c1ccc(F)cc1` (stereo not given), the inhibition was 3.59%.

On to `COc1ccc2c(c1)c1c(c(=O)n(Cc3ccccc3)c(=O)n1CC(=O)NCc1ccc(C)cc1)n2C`, for which the inhibition was -3.26%.

For `COc1ccc(N2CCN(C(=O)CCC(=O)NNc3nc4ccccc4c4nc(C)nn34)CC2)cc1`, the inhibition was -5.04%. To `Cc1ccc(C)c(N2CCN(C(=O)c3ccc(Nc4nc5ccccc5n5nnnc45)cc3)CC2)c1` belongs 1.76%. Consider `Cc1ccccc1NC(=O)Cn1c(=O)n(Cc2ccc3c(c2)OCO3)c(=O)c2ccc(C(=O)NC3CCCCC3)cc21`, for which the inhibition is -3.36%.

On to `CC(=O)c1cccc(NC(=O)c2oc(=O)c3ccccc3c2-c2ccccc2)c1`, for which the inhibition was -10.3%.

Turning to `CC(C)CN(CCNC(=O)c1cn(C)c2ccc(S(=O)(=O)N3CCOCC3)cc2c1=O)CC(C)C`, the inhibition stood at 16%.

As to `COc1ccccc1N1CCN(C(=O)C(=O)c2cn(CC(=O)N3CCCCCC3)c3ccccc23)CC1`, the inhibition was active: 37.6%. The value for `CSCCC(NS(=O)(=O)c1ccc2c(c1)oc(=O)n2C)C(=O)NCc1ccccc1` (stereo not given) was 21.3%. With `Cc1ccc2cccc(NC(=O)c3ccc(-c4cccc(Cl)c4Cl)o3)c2n1`, the inhibition is 10.6%. The value for `Cn1nc(C(=O)NCc2ccc(F)cc2)c2c1-c1ccccc1SC2` was 20.6%; that for `CC1CCN(C(=O)CN2c3ccc(C(C)C)cc3-c3ccccc3S2(=O)=O)CC1` was 18.5%. For the molecule `Cc1cc(-c2ccccc2)n2nc(-c3cccc(Br)c3)cc2n1`, the inhibition was -20.6%. For the molecule `Cc1ccc(-c2c(C(=O)NCc3ccc(F)cc3)oc(=O)c3ccccc23)cc1`, the inhibition was -7.41%. The value for `CCc1ccc(NC(=O)N2c3ccccc3Sc3ccccc32)cc1` was -17.7%; that for `CCN(Cc1ccccc1)S(=O)(=O)c1ccc2c(c1)CCCN2C(C)=O` was -11%. The value for `Cc1ccc(C)c(Cn2cnc3c(cnn3-c3ccc(F)cc3)c2=O)c1` was 4.12%; that for `Cc1nn(-c2ccccc2)c(Cl)c1/C=N/NC(=O)CNC(=O)c1ccccc1Cl` was active: 46.1%. The value for `COc1ccc(CCNS(=O)(=O)c2ccc(N3CCCCS3(=O)=O)cc2)cc1OC` was 14.1%; that for `Cc1nc2c(-c3ccccc3)c(C)nn2c(C)c1CCC(=O)NCc1ccc(Cl)cc1` was -17.1%.

For the molecule `Cc1ccc(CNC(=O)CCCN2C(=O)CCn3nc(-c4cn(C)c5ccccc45)cc32)cc1`, the inhibition came to 22.7%. The value for `Cc1ccc(Cn2c(CCCNC(=O)c3ccco3)nc3ccccc32)cc1` was 22.9%; that for `COc1ccc(NC(=O)CC2C(=O)N(c3ccccc3)C(=O)N2C2CCCCC2)cc1` (stereo not given) was 3.05%. The value for `O=C(Cn1cnc2onc(-c3ccc(F)cc3)c2c1=O)Nc1cccc(C(F)(F)F)c1` was 0.902%.

In the case of `CS(=O)(=O)N(CC(=O)NCCSCc1ccccc1)c1cc(C(F)(F)F)ccc1Cl`, the inhibition is -20.1%. To `COc1ccccc1CNC(=O)c1cc2cccc3c2n1CC(C)S3` (stereo not given) belongs 2.55%; to `CCOC(=O)c1ccc(NC(=O)c2nc(SC(C)C)ncc2Cl)cc1`, -15.1%; to `COc1cccc(CNC(=O)C2CCN(Cc3cc4ccccc4n3Cc3ccc(C)cc3)CC2)c1`, -26.8%. For `COc1ccc2oc(=O)c(C(=O)Nc3cccc(C(=O)O)c3)cc2c1`, the inhibition was -7.23%. For the molecule `COc1cc(-c2cc3n(C)c(C)c(CCC(=O)NCc4ccccc4)c(=O)n3n2)cc(OC)c1OC`, the inhibition stood at 25.7%. For `CCOC(=O)c1cc2c(=O)n3ccccc3nc2n(C)c1=NC(=O)c1c(-c2ccccc2Cl)noc1C`, the inhibition was -2.12%. Turning to `COc1cc2[nH]c(C(=O)Nc3ccc(F)cc3)cc2c(OC)c1OC`, the inhibition is active: 89%. The value for `CC(C)(C)CN1CCC(Oc2cccc(C(=O)N3CCNC(=O)C3(C)C)c2)CC1` was active: 31.6%. To `COc1ccc(-n2cc(C(=O)Nc3cc(F)ccc3F)c3ccccc3c2=O)cc1` belongs -22.3%. On to `O=C(Nc1ccc(F)cc1F)c1ccc2c(c1)CCN2S(=O)(=O)c1ccc(Cl)cc1`, for which the inhibition is -0.0254%. As for `CCOc1ccc(CNC(=O)Cn2ccc3cc(S(=O)(=O)N4CCCCCC4)ccc32)cc1`, the inhibition is -14.5%. To `CCCn1c(=N)c(C(=O)NCc2cccnc2)cc2c(=O)n3ccccc3nc21` belongs -0.611%; to `COc1ccc(NC(=O)C(Cc2ccccc2)NS(=O)(=O)c2ccc3c(c2)CCN3C(C)=O)cc1` (stereo not given), 13.6%. As to `CCOC(=O)c1cc(OC(=O)c2ccc(OC)cc2)n(-c2ccccc2)n1`, the inhibition is 10.4%. On to `COc1ccccc1-c1cc2nc(C)c(CCC(=O)NCCc3ccc(SC)cc3)c(C)n2n1`, for which the inhibition was -21%. To `Cc1ccc(C)c(CNC(=O)c2ccc3c(c2)nc2n3CCC(C)C2)c1` (stereo not given) belongs 7.45%. To `CCOC(=O)Cc1ccc(NC(=O)Nc2cc3c(cc2N2CCCCC2)n(C)c(=O)n3C)cc1` belongs 9.35%; to `O=C(Nc1nc2ccc(S(=O)(=O)N3CCOCC3)cc2s1)c1cccs1`, active: 56.6%; to `CCN(CC)c1ccc(NC(=O)c2sc3ccccc3c2Cl)cc1`, -6.43%. The value for `COc1ccc(OC)c(-c2noc(N3CCN(c4cc(C)ccc4C)CC3)n2)c1` was -8.93%. On to `CCOc1ccc(NC(=O)C2CCN(S(=O)(=O)c3c(C)noc3/C=C/c3c(C)cc(C)cc3C)CC2)cc1`, for which the inhibition is -16.5%. To `Cc1csc2ncnc(NC3CCN(Cc4ccccc4)CC3)c12` belongs active: 78.6%. `CCOC(=O)c1ccc(NS(=O)(=O)c2ccc3c(c2)OCCO3)cc1`: the inhibition turned out to be 3.34%. Regarding `CCCC(=O)Nc1cccc(-c2cn3cccnc3n2)c1`, the inhibition came out at 5.23%.
